The other results are listed elsewhere or left out. Sequences were assembled here from the parent chain. Values near 0.05 are background.
B1: TEV protease; numbered along this chain (parent)
chain: MGESLFKGPRDYNPISSSICHLTNESDGHTTSLYGIGFGPFIITNKHLFRRNNGTLVVQSLHGVFKVKDTTTLQQHLVDGRDMIIIRMPKDFPPFPQKLKFREPQREERICLVTTNFQTKSMSSMVSDTSCTFPSGDGIFWKHWIQTKDGQCGSPLVSTRDGFIVGIHSASNFTNTNNYFTSVPKNFMELLTNQEAQQWVSGWRLNADSVLWGGHKVFMVKPEEPFQPVKEATQL

Variants of: B1
Assay: raw area under fraction-flipped curve 0-4 h after induction (AUC4h, not background-subtracted), DNA-recorder readout of cleavage of the substrate (dimensionless); higher = more cleavage of the substrate by the protease variant
Details: temperature: 34 °C; time window: 0-4 h after rhamnose induction
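Also: Bxb1 expression induced with 0.2% (w/v) L-rhamnose at OD600 near 0.5, cultures sampled hourly, flipped fraction per protease–substrate barcode pair counted by paired-end Illumina sequencing.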

MGESLFKGPRDYNPISSSICHLTNESDGHTTSLYGIGFGPFIITNKHLFRRNNGTLVVQSLHGVFKVKDTTTLQQHLVDGRDMIIIRMPKDFPPFPQKLKFREPQREERICLVTTNFQTKSMSSMVSDTSCTFPSGDGIFWKHWIQTKDGQCGSPLVSTRDGFIVGIHSASNFTNTNNYFTSVPKNFMELLTNQEAQQWVSGWRLNADSVLWGGHKVFMVKPEEPFNPVKEATQL [Q227N]
area with substrate ENLYCQS: 0.132
area with substrate ENLYDQS: 0.0738
area with substrate ENLYEQS: 0.0685
area with substrate ENLYGQS: 0.0675
area with substrate ENLYHQS: 0.0636
area with substrate ENLYIQS: 0.101
area with substrate ENLYKQS: 0.0637
area with substrate ENLYMQS: 0.101
area with substrate ENLYNQS: 0.0851
area with substrate ENLYPQS: 0.0717
area with substrate ENLYRQS: 0.05
area with substrate ENLYTQS: 0.0775
area with substrate ENLYVQS: 0.141

MGESLFKGPRDYNPISSSICHLTNESDGHTTSLYGIGFGPFIITNKHLFRRNNGTLVVQSLHGVFKVKDTTTLQQHLVDGRDMIIIRMPKDFPPFPQKLKFREPQREERICLVTTNFQTKSMSSMVSDTSCTFPSGDGIFWKHWIQTKDGQCGSPLVSTRDGFIVGIHSASNFTNTNNYFTSVPKNFMELLTNQEAQQWVSGWRLNADSVLWGGHKVFMVKPEEPFQPVKEATCL [Q234C]
area with substrate ENLYCQS: 0.0809
area with substrate ENLYEQS: 0.0684
area with substrate ENLYGQS: 0.0608
area with substrate ENLYHQS: 0.0401
area with substrate ENLYIQS: 0.119
area with substrate ENLYKQS: 0.0783
area with substrate ENLYMQS: 0.0816
area with substrate ENLYPQS: 0.0736
area with substrate ENLYQQS: 0.0652
area with substrate ENLYRQS: 0.047
area with substrate ENLYTQS: 0.105
area with substrate ENLYVQS: 0.104
area with substrate ENLYWQS: 0.0483

MGISLFKGPRDYNPISSSICHLTNESDGHTTSLYGIGFGPFIITNKHLFRRNNGTLVVQSLHGVFKVKDTTTLQQHLVDGRDMIIIRMPKDFPPFPQKLKFREPQREERICLVTTNFQTKSMSSMVSDTSCTFPSGDGIFWKHWIQTKDGQCGSPLVSTRDGFIVGIHSASNFTNTNNYFTSVPKNFMELLTNQEAQQWVSGWRLNADSVLWGGHKVFMVKPEEPFQPVKEATQL [E3I]
area with substrate ENLYDQS: 0.0719
area with substrate ENLYEQS: 0.0544
area with substrate ENLYHQS: 0.0754
area with substrate ENLYKQS: 0.0961
area with substrate ENLYLQS: 0.103
area with substrate ENLYNQS: 0.0717
area with substrate ENLYPQS: 0.0649
area with substrate ENLYSQS: 0.0976
area with substrate ENLYWQS: 0.0895

MGESLFNGPRDYNPISSSICHLTNESDGHTTSLYGIGFGPFIITNKHLFRRNNGTLVVQSLHGVFKVKDTTTLQQHLVDGRDMIIIRMPKDFPPFPQKLKFREPQREERICLVTTNFQTKSMSSMVSDTSCTFPSGDGIFWKHWIQTKDGQCGSPLVSTRDGFIVGIHSASNFTNTNNYFTSVPKNFMELLTNQEAQQWVSGWRLNADSVLWGGHKVFMVKPEEPFQPVKEATQL [K7N]
area with substrate ENLYDQS: 0.0559
area with substrate ENLYEQS: 0.0682
area with substrate ENLYKQS: 0.0209
area with substrate ENLYMQS: 0.0863
area with substrate ENLYNQS: 0.0744
area with substrate ENLYQQS: 0.0732
area with substrate ENLYRQS: 0.0748
area with substrate ENLYWQS: 0.0701

MGESLFKGPRDYNPISSSIYHLTNESDGHTTSLYGIGFGPFIITNKHLFRRNNGTLVVQSLHGVFKVKDTTTLQQHLVDGRDMIIIRMPKDFPPFPQKLKFREPQREERICLVTTNFQTKSMSSMVSDTSCTFPSGDGIFWKHWIQTKDGQCGSPLVSTRDGFIVGIHSASNFTNTNNYFTSVPKNFMELLTNQEAQQWVSGWRLNADSVLWGGHKVFMVKPEEPFQPVKEATQL [C20Y]
area with substrate ENLYDQS: 0.0572
area with substrate ENLYEQS: 0.0527
area with substrate ENLYGQS: 0.0556
area with substrate ENLYHQS: 0.0583
area with substrate ENLYKQS: 0.049
area with substrate ENLYLQS: 0.0413
area with substrate ENLYMQS: 0.0502
area with substrate ENLYNQS: 0.0479
area with substrate ENLYPQS: 0.055
area with substrate ENLYQQS: 0.0466
area with substrate ENLYSQS: 0.0427
area with substrate ENLYVQS: 0.0494
area with substrate ENLYYQS: 0.0528
